In the supplement of paper PMC11417369:
The list shows a part of the results.

System: PF3D7_0420300 AP2 domain 1 (GST-tagged)
Test: gcPBM binding intensity (ln(normalized median fluorescence intensity)); higher = stronger DNA binding
Outline: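 GST-fused DNA-binding domains of P. falciparum, expressed in E. coli, were applied at about 25 μg on average for 1 h to an Agilent 4 × 180k array of primer-extended double-stranded 36-bp intergenic genomic probes and negative controls. Binding intensity is the highest Masliner-normalised natural-log median intensity across replicate spots of either probe orientation, measured with Alexa488 anti-GST antibody and a 488 nm scan.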

Sequence	gcPBM binding intensity (ln)
ATTTTTTTTTTTTTTTTTTTTGCACCATAAAATAAT [CACACA_negctrl_site1324]	9.18
TATATATATATGTGTACACATTTGTCAGATTATATA [CACACA_site4813]	9.29
ATTTTGACATTATATAGTACATATAATTTACATTTA [XGTACX_site3024]	9.35
ATATATTTAAACAAAAGTACAAATCATAAATTCAAG [XGTACX_site3633]	9.24
TATATATTCTTTTAATGTACATATTGTATTATATCC [XGTACX_site4501]	9.35
TCTTTATCTTCTTATACACACATTTATTAAAAAAAA [CACACA_site445]	9.28
TGACATAAAAAATATACACACTATAATATTTATACT [CACACA_site6776]	9.44
ATTTTTTAAAAAGTAACACACACTCTTATATATAAT [CACACA_site9206]	9.49
GATTACTAGAAATGCACACACTGATAAAATAAGGAA [CACACA_site6131]	9.59
TATATATATGAGTATACACACCTGATAAAGGTATAT [CACACA_site5462]	9.42
TTAAACTTGAAACACACACACACACCGATATAAAAA [CACACA_site4578]	10.2
AGAAATATATCTATTTGTCCGTATATTCATATTTAT [XGTACX_site8427]	9.4
ATAAAAATATTGTCTAGTACATATTTATAATAAAAA [XGTACX_site7523]	8.88
AGATTGGAACATTAAAGTACTTACTTTTTTTTTTTT [XGTACX_site8017]	9.04
TATATTAGAAAGGATACACACATATATATATATCTA [CACACA_site570]	9.54
ATAACTTTTTAAAAGACACACATAAGAAAAACAAAA [CACACA_site723]	9.53
ATAAAACGAAGATGTTGTACGTACAAATAAATGAAT [XGTACX_site2472]	9.57
CAAAAGTAAGCACGCACACACAACATGAAATAAACT [CACACA_site6223]	9.99
TTAATTAATTTTTCAGTGCAAATAAAAAATATTTAA	8.67
TATACGCAGAAACACACACACATACACCCACATACA [CACACA_site1723]	10
TATCTTATAAACTCTGCACACATAATATATTAAATG [CACACA_site8587]	9.44
AACGTTCATAATTATTGTACCCTCATTTTATTTTTT [XGTACX_site503]	9.77

Sequence	gcPBM binding intensity (ln)
AAAAATTTTAATTAGGAACACACATATATATATATA [CACACA_site9016]	9.42
CTTAATAAGAATAAATGTACAAGGGATAAAAAATTT [XGTACX_site3213]	9.4
TATTTAATTATTTGTAGTACGATTAATATTTAATGA [XGTACX_site3553]	8.86
ATAGAATATTAATAATTAAAAATAAAATAAAATAAA [CACACA_negctrl_site1810]	9.22
ATATATATGTATGTATGTACACACAAAAAATGGAAT [XGTACX_site7879]	10
AAAAAAAAAAAAAAAACACACATTTTAAGAAAAAAA [CACACA_site2926]	9.25
TACAAAATAAATGGAACATGCAAAAAAATTGATTAA [TGCATGCA_site790]	9.4
ATATGCTATTATATATGTACACACCAATTTATTTAT [XGTACX_site8364]	9.63
ATATATATATGTTTGTGTACTTATGATATCATATAA [XGTACX_site3276]	9.4
TTAAAATAGCTAGTTTGTACATAAAATATATTACTT [XGTACX_site202]	9.12
AATATATATATATATATTTTTGTTAGAATATGGAAT [GTGCAC_negctrl_site434]	9.19
TTTTAAAAAATATAATAATATAAATATGTTTTATAC [CACACA_negctrl_site643]	8.86
TAAATAAATAAAAATAGTACATAATTATTATTATTA [XGTACX_site4981]	9.06
ATAATATAGAAACACACACACATATATATATACATT [CACACA_site555]	10.2
TTTATATATAAATATATATATATATATATATATATA [TGCATGCA_negctrl_site121]	8.67
TAGTTTTTATATAGCACACATATTGTGATTATGTAT [CACACA_site1196]	9.33
AAATTATGTGCCAATACACACACACCGATATATATA [CACACA_site8050]	10
TTCTTAGATTGTACAGTACACACCTTTAGAATGTTA [CACACA_site212]	9.38
AATTCATTTTACCCATGTACACAATTATATTTTATA [XGTACX_site4127]	9.54
TACTACCACGGACATGCATGCACATTATTACTCTAA [TGCATGCA_site313]	9.51
AAGAAAAAATGATGAATAGAGATCAAATCTATATAT [TGCATGCA_negctrl_site29]	9.3
ACATTCATAAAAAAAAGTACATTTTTTATAAAAGAA [XGTACX_site6197]	9.15

Sequence	gcPBM binding intensity (ln)
TATATTTAGAATACAATCTTAAAGTTGAAATAAAAT [CACACA_negctrl_site1292]	8.93
TTGTTAAATATTTATAAAATGAATTTAAAATGTACT [CACACA_negctrl_site665]	8.86
AACATAATAAAAAAACGTACATAATTTTATATACAT [XGTACX_site6602]	9.41
TTTATTATCTTATTCACACACATATATAAATATGTA [CACACA_site7369]	9.54
AAAAAAAAAACATACACACACACAAATATTTATATA [CACACA_site437]	10.1
ATATATCCAATATATATATATATATATATATATATA [CACACA_negctrl_site160]	8.88
AAAATAATCACATATTGTACAAAAAAATTTATTAAA [XGTACX_site3239]	9.21
ACATAATTTGATAATACACACAAATAATCTAAAATT [CACACA_site129]	9.47
TATATTAATATGAAAAGTACACATTCTATATATATA [XGTACX_site929]	9.14
AAAAAATGGATGATCACACACTTCATAAAAATTGCA [CACACA_site5256]	9.33
AAAAAAAAAAAAAAATGTACCCATATATAAATATAT [XGTACX_site4061]	9.1
TTTAATTATAAAACGTGTACATAATTATAATTACAT [XGTACX_site2206]	9.16
ATCATTTGCTCACGCACACACACATAAAAAGAAAAA [CACACA_site4349]	9.84
ATTATGTACAAAATGGTGCAATATTATACATATATA [GTGCAC_site9468]	9.21
AAAAATAGTATAAGTAGTACAACTGAAAAGTTATGT [XGTACX_site7488]	9.5
GACTTTTCAATTTTTCGTACGTATAAATTGTATACA [XGTACX_site1488]	9.16
TTTTGTTACTTTTATGTGCACTTATAAAACGAACTA [GTGCAC_site9551]	9.16
TTTTTATTGTTGTACTTATATTATTTTATTATTAAA [GTGCAC_negctrl_site200]	9.45
CTAATATATATCAATTGTACATATTGAATAAGAACA [XGTACX_site4541]	9.18
ATTCATTCATATGTTACACACACACCGACACATAAA [CACACA_site5749]	10
TTTTGAAGTAACAAATAAATAAATAAATATATAAAA [GTGCAC_negctrl_site517]	9.17
TATTAAACTGGACACACACACACACCCATATATAAA [CACACA_site4579]	10.2

Sequence	gcPBM binding intensity (ln)
CATACATACAAACACACACACACACCCATATATATA [CACACA_site2918]	10.4
TTTTTAACCAAACATCAAAACATATTTTTTTGTTAT [CACACA_negctrl_site385]	8.89
GTATACCTTTTGACATGTACGTATGTATATTTGGGT [XGTACX_site720]	9.29
ACTACATTATGTCATACATGCATACATACGTGGTTT [TGCATGCA_site732]	9.39
CATTAAAAGTATAATTGTACTTTTCATTTATATATT [XGTACX_site7536]	9.24
AGTAATTTAAGGAATACACACAAGAAAAAAATAAGA [CACACA_site6177]	9.92
TAATATATATATATATGTACATATATATTATGTATA [XGTACX_site4690]	9.07
TTCTCAAAATTAAAATAACAGATTAACGAACTAACG [CACACA_negctrl_site1720]	9.2
AGATTATTTAGAATGTGTACATATTACACATACATG [XGTACX_site8634]	9.31
TACTTTCAAAAGATCACACATATATATATATATATA [CACACA_site5630]	9.11
TAATAACATACAGACACACACGTAAAAGCACGTGTA [CACACA_site4299]	9.63
ATAAATAAATAAGTACATATATATATGTATATATAT [TGCATGCA_negctrl_site223]	9.41
ATGACATGTTCTAAATGTACATTTTTTAACCCTTTT [XGTACX_site1858]	9.3
TATGGTTACATTATATGTACTAAACGAATATTTTTA [XGTACX_site5694]	9.04
TATACAAGTATATAGGTGCATATATAAGTATATATT [GTGCAC_site9994]	9.26
TATGTTTTTACATATTGTACATATTCTTGTAATACG [XGTACX_site1179]	9.23
ATTATAATGTTAATGTGTACATATGATTCCTTAATT [XGTACX_site181]	9.37
TATGTGTGCAAAAACTGTACACATTAAAGGTATATA [XGTACX_site7627]	9.62
CATATAAAAGGACACACACACACATATAAATATGTA [CACACA_site6568]	10
TGCTATTTTATTTATTCTTTTATAAAAGTATAATAT [XGTACX_negctrl_site358]	9.25
ATTTTTATAGAATGAACACACATATTATAGCATTTA [CACACA_site6842]	9.28
ATAAAAAAAATTTGCACACCTTCAAAGTAATATATA [CACACA_site1584]	9.4
